Results published in ChEMBL document CHEMBL4888484, “Replenishing the malaria drug discovery pipeline: Screening and hit evaluation of the MMV Hit Generation Library 1 (HGL1) against asexual blood stage Plasmodium falciparum ,using a nano luciferase reporter read-out” (2022).
About 540 (0.36%) of roughly 150,000 compounds showed an effect of 50% or more. The list shows a part of the results.

Tested on: Plasmodium falciparum
Experiment: Primary screen in NF54 nanoGlo assay, in single point, at 2uM, 72h; a lower Z score goes with more inhibition
Type: functional, Erythrocyte
Conditions: timepoint 72 hour

SMILES	% Inhibition [%]	Z score
C[C@H]1CCCN(C(=O)c2ncccn2)C1	-8	1.54
CNC(=O)[C@@H]1C[C@@H](NC(=O)c2sc(C)nc2C)CN1CCOC	-17	1.67
O=C1CCn2c(CNc3ccccc3)ccc21	-3	0.35
CN1CCC(CCN(C)Cc2cc3ccccc3s2)CC1	3	-0.49
OC(COCc1ccc2c(c1)OCO2)CN1CCCC(c2nc3ccccc3s2)C1 (stereo not given)	-2	0.22
CCc1ocnc1C(=O)N1CCCCCCC1	-15	1.38
COc1cc(-c2nc3c([nH]2)c(-c2ccccc2)nn3C)cc2c1OCO2	-4	0.58
C[C@@H](Cc1cccc(C(F)(F)F)c1)N1CCC(n2cc(C(=O)N3CCCCC3)nn2)CC1	-12	1.76
CC(C)C[C@]1(CO)CCCN1C(=O)NCc1ncccc1S(C)(=O)=O	11	-1.41
CCC(C)NC(=O)C(CC(N)=O)NC(=O)Cc1cccc(F)c1 (stereo not given)	13	-1.46
COc1ccc(Cl)cc1NC(=O)N1CCC(c2nnc(-c3ccsc3)o2)CC1	11	-1.24
CN(C)Cc1nc(C(=O)N[C@H]2CC[C@@H]3CCC[C@@H]32)cs1	2	-0.32
CN1C(=O)COC12CCN(C(=O)c1cnc3cc[nH]c3c1)CC2	-6	0.95
O=C(c1conc1C1CC1)N1CCC[C@H](CC(F)(F)F)C1	-3	0.62
COC[C@H]1CCCN(C(=O)NCc2ccc(C)s2)CC1	-6	0.72
Cc1cc(-c2ccc(C(=O)NC[C@H](O)CO)cc2)nc2cc3c(cc12)CCC3	-1	0.22
CCc1nnc(NC(=O)NCc2cc(C)no2)s1	2	-0.42
CCc1nnc(NCCc2nc(C)c(Cl)s2)o1	-12	1.3
CCN1C[C@H](NC(=O)c2ccncc2C)[C@@H](OC)C1	-18	1.59
COc1cccc(OCCN2Cc3nc(C)nc(O)c3C2)c1	-10	1.34
Cc1nc(CN)cc(NCCNc2ccccc2)n1	-33	2.92
Cc1cccc(OC2CCN(C(=O)c3ccn(C)c(=O)c3)CC2)c1	6	-1.16

SMILES	% Inhibition [%]	Z score
CCn1nc(-c2cccc(C(=O)N3CCc4n[nH]cc4C3)c2)nc1N(C)C	-1	0.13
O=C1C[C@@H]2CCN(C3CCOCC3)C[C@@H]2CCOc2ccc(C(F)(F)F)cc2N1	-12	1.86
CN(CC(=O)N(C)C1CCCCC1)C(=O)c1cc2cccn2cn1	-4	0.77
O=C(CN1CCN(C(=O)CN(CC2CCCCC2)C2CC2)CC1)Nc1ccccc1C(F)(F)F	-4	0.51
COCCn1cc(-c2c(C)nc3ccccn23)cn1	-9	1.16
Cc1c(C#N)c(-c2ccccc2)nc(/C=C(/O)c2ccccc2)c1C(=O)NCc1ccccc1	3	-0.4
NC(=O)N1CCC[C@H]1C(=O)NCc1cc(F)c(Cl)cc1F	-6	0.77
COc1ccc(C(=O)NC(=N)c2ccccc2)cc1	-14	1.83
Cc1cc(S(=O)(=O)N2C[C@H]3CC[C@@H](C2)[C@H]3N)c(C)s1	-12	1.16
c1ccc2nc(N3CCCOCC3)cnc2c1	-3	0.31
CCOC(=O)N1CCC(NC(=O)c2occc2C)CC1	-6	1.08
CCc1nccc(CN2CCC(CCC(N)=O)CC2)n1	-5	1.07
CCc1nc2ccccc2n1[C@@H](CC)C(=O)N1CCC(n2cnnc2)CC1	-8	1.36
COc1c(Br)cccc1CCNC(=O)CC(F)(F)F	-5	0.77
CC1(c2noc(C3=NN(Cc4ccc(F)cc4)C(=O)CC3)n2)CCC1	-7	1.3
Cc1nc2ccccc2n1Cc1cc(C(=O)N2CCCCO2)n[nH]1	-31	5.84
COc1ccc(CN2C(=O)COC[C@H]2C(=O)NCc2ccccc2F)c(OC)c1	1	-0.06
COc1cccc(CC(=O)N(Cc2ccc(F)cc2)Cc2nc3cc(Cl)ccc3o2)c1	-8	0.91
COC(=O)C1(N(C)CC(=O)N2CC(=O)NC(=O)C23CCCCC3)CCCC1	-1	0.19
COC(=O)[C@@H]1C[C@H](O)CCN1C(=O)c1cnc2ccccc2n1	-6	0.6
CN(C)c1ccc(NS(=O)(=O)c2cccc(F)c2)cn1	14	-2.17
O=C([C@@H]1CCc2cccc(O)c21)N1CC(O)(C(F)(F)F)C1	0	0.09

SMILES	% Inhibition [%]	Z score
Cc1nn(C)c(C)c1CC(=O)Nc1ccnn1C(C)C	-2	0.22
CS(=O)(=O)CCCC(=O)N1CCCCC[C@H]1C=Cc1ccccc1	-7	0.73
CN1C(=O)C[C@H](C(=O)O)C12CCN(Cc1cccc(-c3ccccc3)c1)CC2	-12	1.78
Cc1cnc(C(=O)N2C(C)CN(C(=O)OC(C)(C)C)C(C)C2C)cn1 (stereo not given)	-7	1.02
CCc1nc(C)nc(N2CCN(C(=O)[C@H]3CCOC3)CC2)c1Cc1cccc(OC)c1	-8	1.5
Cc1ccc(C(=O)Nc2ccnn2CCN(C)C)cc1-c1cnn(C)c1	-17	1.76
Cc1c(-c2ccc(OCc3ccccc3)cc2)[nH]c2ccc(OCc3ccccc3)cc12	-9	0.97
CN1C(=O)Cc2cc(-c3csc(-c4ccco4)n3)ccc21	-6	0.88
O=C(C(c1ccccc1)c1ccccc1)N1CCCc2ccccc21	1	-0.09
C=CCN1CCN(C(=O)NC2CCCC2)CC1	0	0.07
CN(C)c1ccc(CNC[C@@H](c2ccccc2)N2CCCCCC2)cn1	-3	0.49
COc1ccc(CN2CCOC[C@@H](CN(C)C)C2)c(Cl)c1OC	-15	1.49
C[C@H]1CCCN(C(=O)c2cccc(S(=O)(=O)N3CCCCC3)c2)C1	-14	2.16
CCN(CC)[C@@H](Cn1cnc(-c2ccccc2)c1-c1cnn(C)c1C)c1ccco1	0	0.01
C[C@@H]1CCC[C@H](C)N1C(=O)c1coc(COc2cccc(C(F)(F)F)c2)n1	0	-0.01
COCc1cc(Cn2cc(-c3ncc[nH]3)nn2)n[nH]1	5	-0.75
CCc1csc(NC(=O)N(C)Cc2c(C)noc2C)n1	-2	0.29
CCC(CC)C(=O)N1CCC(NS(=O)(=O)C[C@H](C)C2CC2)CC1	-8	0.94
CN(C)C(=O)[C@@H]1CN(CC(=O)NC2CCCCCC2)CCO1	3	-0.42
CC(C)c1ccc(OC[C@H]2c3ccsc3CCN2C(=O)CN(CCN2CCCC2)C(=O)NC(C)(C)C)cc1	-2	0.32
Cn1c(-c2ccc(Cl)c(Cl)c2)c[n+](CC(=O)c2ccc(F)cc2)c1N	37	-4.75
CCOCc1ccc(NC[C@H]2CCC=CO2)cc1	3	-0.46

SMILES	% Inhibition [%]	Z score
O=C(N[C@H]1CCOC[C@@H]1OCc1cscn1)c1nccnc1O	2	-0.19
C[C@@H](c1ccncn1)N(C)C(=O)c1ccc(CCC(C)(C)O)cc1	-4	0.68
COc1cccn(Cc2nccn2C(C)C)c1=O	-4	0.8
Cc1ccc(C(=O)O)c(N2CCn3nc(CNC(=O)C4CCC4)cc3C2)n1	-8	1.1
Cc1nc(C2=C(O)CN(C3CCCCCCC3)C2=N)sc1C	-4	0.42
c1ccc2c(c1)CC(NCc1cccnc1-n1ccnc1)C2	-10	1.16
Cc1ccc(Cl)cc1/N=C(\NCc1cccnc1)NC(=O)c1cccc(F)c1	-11	0.99
Cc1ccccc1[C@]1(O)CCN(C(=O)NC2(c3cc(F)ccc3F)CC2)C1	-4	0.6
CC(C)[C@H](Cn1nccn1)NC(=O)Nc1cccs1	-3	0.46
Cc1cnc(C)c(N2CCC[C@H](OCC3CC3)C2)n1	-9	1.01
O=C(N[C@@H](Cc1ccccc1)C(=O)N1CCC2(CC1)NCCc1[nH]cnc12)c1ccc2c(c1)OCO2	-9	1.17
CC(=O)Nc1cc(Br)ccc1N	-34	3.98
Cc1c(C(=O)N(C)Cc2ccco2)cnn1[C@H]1CCS(=O)(=O)C1	2	-0.35
CC(C)c1nnc(CCC(=O)N2CCOC[C@@H]2CC2CCC2)o1	-6	1.14
Cc1c(Br)cc(C(=O)N(C)c2cnn(C)c2)c(=O)n1C	-7	0.89
COC[C@H](NC(=O)Nc1cccc(-n2nccc2C)c1)c1ccco1	-4	0.69
CN(C)c1ccc(N2CCC(C(=O)NCCc3c[nH]c4ccccc34)CC2)nn1	-16	2.91
Cc1nnc(N2CCCC[C@@H]2CCc2ccccc2)s1	2	-0.24
C#CCNC(=O)CC(=O)N1CC[C@H](NC(=O)OC(C)(C)C)c2cc(OC)ccc21	7	-0.8
